Laboratory results as given in PubChem BioAssay AID488969 (Vanderbilt High Throughput Screening Facility, 2010).
Whole data set: some 110,000 compounds, median “z-score” near -0.1, cut for the highest 2% near 2. This is one part of the list. The source made the active and inactive calls.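 The calls were made as follows: active = z-score in the third read window above 3 or below -3; inactive = the rest.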

Target: Metabotropic glutamate receptor 8 (Rattus norvegicus) (UniProt P70579)
Test: mGluR8 Gi/Go-coupled signaling modulation – cell-based, rat, thallium flux, HTS, primary screen (AID 488969)
Conditions: HEK293 rat mGluR8, GIRK (G protein-gated inwardly rectifying potassium channel) thallium flux, FluoZin2; at 10 µM; stronger effect = higher value; submaximal glutamate (EC20) added with thallium

Chain of UniProt P70579 (P70579 whole entry, looked up): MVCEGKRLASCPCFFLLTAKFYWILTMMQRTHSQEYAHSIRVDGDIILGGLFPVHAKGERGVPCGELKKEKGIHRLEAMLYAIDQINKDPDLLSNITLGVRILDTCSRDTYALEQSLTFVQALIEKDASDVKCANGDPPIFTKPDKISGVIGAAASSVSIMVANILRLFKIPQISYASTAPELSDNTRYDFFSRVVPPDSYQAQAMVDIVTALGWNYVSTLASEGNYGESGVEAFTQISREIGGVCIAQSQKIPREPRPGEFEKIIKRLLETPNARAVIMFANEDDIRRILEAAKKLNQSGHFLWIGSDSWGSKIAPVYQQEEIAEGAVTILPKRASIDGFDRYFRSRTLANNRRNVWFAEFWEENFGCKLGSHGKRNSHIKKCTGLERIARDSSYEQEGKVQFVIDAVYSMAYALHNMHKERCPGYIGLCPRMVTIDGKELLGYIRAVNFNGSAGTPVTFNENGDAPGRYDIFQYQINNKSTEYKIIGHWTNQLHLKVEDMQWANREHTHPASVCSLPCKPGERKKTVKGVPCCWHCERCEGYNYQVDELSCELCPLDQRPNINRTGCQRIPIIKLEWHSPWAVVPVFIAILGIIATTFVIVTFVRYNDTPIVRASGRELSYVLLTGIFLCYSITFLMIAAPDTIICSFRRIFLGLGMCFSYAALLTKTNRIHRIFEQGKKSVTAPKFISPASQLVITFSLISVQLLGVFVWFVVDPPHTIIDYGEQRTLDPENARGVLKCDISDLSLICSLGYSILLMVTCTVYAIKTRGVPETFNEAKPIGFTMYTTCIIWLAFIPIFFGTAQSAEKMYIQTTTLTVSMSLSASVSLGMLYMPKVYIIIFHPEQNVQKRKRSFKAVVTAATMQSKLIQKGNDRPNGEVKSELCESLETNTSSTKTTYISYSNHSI

SMILES | z-score
CCOC(=O)N1CCN(S(=O)(=O)c2ccc3c(c2)oc(=O)n3C)CC1 | 0.0985
O=C(CCN1C(=O)C2CC=C(Cl)CC2C1=O)NCc1ccccc1 (centres undefined) | 0.029
Cc1ccccc1NC(=O)c1cnn(-c2ccccc2)c1NC(=O)c1ccco1 | -0.127
CCSc1nnc(NC(=O)c2ccc3c(c2)OCO3)s1 | -0.178
Cc1c(C(=O)NCc2ccc3c(c2)OCO3)oc2ccccc12 | -1.32
COC(=O)c1ccccc1NC1=C/C(=N\S(=O)(=O)c2cccs2)c2ccccc2C1=O | 0.139
CC(C)C[C@H](NC(=O)Nc1cccc(Br)c1)C(=O)O | -0.0217
Clc1ccccc1-c1nnc(-c2ccccc2Cl)o1 | -0.593
Cc1ccc(C(=O)N2CC(=O)Nc3ccc(F)cc3C2c2ccc(F)cc2)cc1[N+](=O)[O-] (centres undefined) | -0.191
CCOC(=O)N1CCC(NCCNC(=O)c2ccc(Cl)cc2)CC1 | -0.483
COc1ccccc1/C=C1\SC(=O)N(CCC(=O)NNC(=O)c2ccccc2Cl)C1=O | -0.0914
COc1ccc(/C=N/NC(=O)CN2CCSCC2)c(OC)c1 | 0.144
CN(c1ccc(C(=O)NCCSCc2ccco2)cc1)S(C)(=O)=O | -0.396
COc1ccc(NC(=O)COC(=O)/C=C/c2ccccc2[N+](=O)[O-])cc1OC | 0.461
O=c1cc(CO)oc(CN2CCN(c3cccc(C(F)(F)F)c3)CC2)c1O | 0.0291
CN(c1cccc(NC(=O)COc2ccc(Cl)cc2Cl)c1)S(C)(=O)=O | 0.195
CCOc1ccc(C2CC(=O)NC(SC)=C2C#N)cc1 (centres undefined) | -0.607
COc1cccc(/C=C/C(=C2\C(=O)N(c3ccccc3)N=C2C)c2ccc(Br)cc2)c1OC | -0.143
O=C(CC(O)(c1ccccc1)C(F)(F)C(F)F)c1cccs1 (centres undefined) | -0.39
Cc1ccc(-c2cc(C(F)(F)F)n3ncc(C(=O)N4CCCc5ccccc54)c3n2)cc1 | 0.0537
Cc1ccc(-n2[nH]c(C)c(C=Nc3ccc4[nH]c(=O)[nH]c4c3)c2=O)cc1 | -0.443
Cc1cccc(C(=O)N2CCN(c3ccc([N+](=O)[O-])c(NCc4ccco4)c3)CC2)c1 | -0.631

SMILES | z-score
Cc1ccc(S(=O)(=O)Cn2nnnc2C(c2ccc(F)cc2)N2CCC(C(N)=O)CC2)cc1 (centres undefined) | -0.332
CCOCN(C(=O)Cn1c(C(C)O)nc2ccccc21)c1c(C)cccc1CC (centres undefined) | 0.17
CCC(Sc1nc2cc3c(cc2c(=O)n1Cc1ccco1)OCO3)C(=O)NCCOC (centres undefined) | -0.33
Oc1ccccc1C=Nc1ccccc1-c1nc2ccccc2[nH]1 | -0.0503
COc1ccc(C2C3C(C)=NN=C3CC(C)(O)C2C(C)=O)cc1 (centres undefined) | 0.0989
COc1ccc(C)cc1NC(=O)CCN1CCCC1 | 0.135
COc1ccc(C(=O)NC2=C(C#N)CCC2)cc1OC | 0.296
O=C(Nc1nccs1)c1ccc2nccnc2c1 | 0.133
Cc1cc(C)c(C#N)c(Sc2ccc(N)cc2)n1 | 0.0341
CC(C)C(NC(=O)c1ccccc1)C(=O)OCc1cc([N+](=O)[O-])cc2c1OCOC2 (centres undefined) | -0.285
C/C(=N/NC(=O)c1ccc2nc[nH]c2c1)c1cccs1 | -0.26
CC(CC(=O)Nc1nncs1)c1ccccc1 (centres undefined) | 0.374
CC(=O)Nc1nonc1NC(C)=O | 1.61
c1ccc(-c2nn3c(Cn4nnc5ccccc54)nnc3s2)nc1 | -0.0917
CC1CC(C)CN(C(=O)CSc2nnc(CSc3ncccn3)n2C)C1 (centres undefined) | 0.853
c1cc2c(cc1Nc1nc(-c3ccc4c(c3)OCO4)cs1)OCCO2 | 0.0369
c1ccc(CSc2ncn(-c3ccccc3)n2)cc1 | -0.469
Cc1cc(C)cc(N2C(=O)c3nccnc3C2=O)c1 | -0.13
Cc1ccccc1NC(=S)NCc1cccs1 | -0.0738
Cc1cccc2c1CC(C)(C)NC2=C(C#N)C#N | 0.368
CCOc1ccc(C(C)=O)cc1N1C(=O)C2C3C=CC(C3=C(C)C)C2C1=O (centres undefined) | -0.272
CC1=CC(=C(C#N)c2nc3ccccc3s2)C=C(C)N1Cc1ccco1 | -2.75

SMILES | z-score
Cc1cnc(C(=O)Nc2ccc(F)c(F)c2)cn1 | 0.772
c1n[nH]c(SCCCCSc2ncn[nH]2)n1 | -0.449
CCN(CC)S(=O)(=O)c1ccc(N2CCCCC2)c(C(=O)Nc2ccccc2N2CCOCC2)c1 | -0.22
CC(C)NC(=O)C1CC(=O)N(c2ccc(F)c(Cl)c2)C1 (centres undefined) | 0.128
CCOC(=O)c1cc(C#N)c(Oc2ccccc2)nc1-c1ccccc1 | -0.996
CCS(=O)(=O)N1Cc2ccccc2CC1C(=O)Nc1ccc(C)cc1 (centres undefined) | 0.251
O/N=C1\CCCc2ccc(Cl)cc21 | -0.339
NS(=O)(=O)c1ccc(NS(=O)(=O)c2ccc(NC(=S)Nc3ccccc3)cc2)cc1 | 0.672
COc1cccc(N2CCN(C(=S)NCCc3ccccc3)CC2)c1 | -0.186
Cc1nnc(SCCn2c(N3CCCC(C)C3)nc3c2c(=O)[nH]c(=O)n3C)s1 (centres undefined) | 0.294
O=C(Nc1ccccc1)c1cc(-c2ccccc2Cl)no1 | -0.171
Cc1ccccc1NC(=S)N(CCCN1CCCCC1)Cc1ccco1 | -0.915
Cc1nn(-c2ccccc2)c2c1C1(C(=O)N(C)c3ccccc31)C(C#N)=C(N)O2 (centres undefined) | -0.0421
COc1ccc(C(C#N)N2N=C(C)CC2(C)C)cc1OC (centres undefined) | 0.407
Cc1cc(NS(=O)(=O)c2ccc(Nc3nc(-c4sc(C)nc4C)cs3)cc2)no1 | 0.423
Cc1cc(C)n(C(=O)c2ccc([N+](=O)[O-])cc2[N+](=O)[O-])n1 | 0.594
O=C(Nc1ncc(Cc2cccc(Cl)c2)s1)C1=NCCN1 | 0.267
O=C(Nc1cccc(Cl)c1)OCc1cn(-c2ccc(Cl)cc2)nn1 | 0.722
CCOC(=O)c1cc(NC(=O)c2ccc(Cl)cc2)c(=O)oc1-c1ccccc1 | 0.101
Cc1ccc(N(NC(=O)C(O)(c2ccccc2)c2ccccc2)C(=O)CCl)cc1 | -0.357
COc1ccc(/C=C/C(=O)NC(=S)Nc2cc3oc4ccccc4c3cc2OC)cc1 | 0.0202
O=C(NNC(=O)C(c1ccccc1)c1ccccc1)c1cccs1 | 0.419

SMILES | z-score
COc1ccc(C2COC(=O)C2=N)c(NC(=O)c2ccccc2)c1 (centres undefined) | -0.27
NS(=O)(=O)c1ccc(-c2ccc(C=NC3CCS(=O)(=O)C3)o2)cc1 (centres undefined) | 0.815
CC(=O)N1N=C(c2ccccc2)CC1c1ccccc1[N+](=O)[O-] (centres undefined) | -0.0779
O=C(Cn1cc(/C=N/NC(=O)c2ccccc2Br)c2ccccc21)Nc1ccc(F)cc1 | 0.65
Cc1ccc(S(=O)(=O)N(CC(=O)Nc2ccc(Cl)c([N+](=O)[O-])c2)C2CCCCC2)cc1 | -0.445
COCCn1cnc2c1c(=O)n(CC(=O)OCC(=O)NCCCc1ccccc1)c(=O)n2Cc1ccccc1 | -0.106
O=C(Nc1ccccc1C(=O)NCCc1ccccc1)c1ccco1 | 0.397
O=C(NC(NNc1ccc([N+](=O)[O-])cc1)(C(F)(F)F)C(F)(F)F)c1ccccc1Cl | -0.392
CCn1cc(C(=O)Nc2nnc(C)s2)c(=O)c2cc(F)c(N3CCN(C(=O)c4ccco4)CC3)cc21 | -0.178
COc1ccc(N(C(=O)C2COc3ccccc3O2)C(C(=O)NC2CCCCC2)c2ccccc2)cc1OC (centres undefined) | -0.111
O=C1Nc2ccc(S(=O)(=O)NCCC3=CCCCC3)c3cccc1c23 | 0.587
COc1cccc(C(=O)OCC(=O)Nc2cc(C)c(C)cc2[N+](=O)[O-])c1 | -0.131
CC(C)(C)NC(=O)Cn1cc(C#N)c2cc(Br)ccc21 | -0.0573
O=C(NCCC1=CCCCC1)N[C@@H](Cc1ccccc1)C(=O)O | 0.284
Cn1c(=O)c(Cc2ccccc2)c(O)c2ccccc21 | -0.00789
Cc1nc(NC(=O)C23CC4CC(CC(C4)C2)C3)sc1Cc1ccc2c(c1)OCO2 | -0.134
CCOn1c(=O)c(C)[n+]([O-])c2ccccc21 | -0.273
CC(CCc1ccccc1)NC(=O)c1ccccc1 (centres undefined) | 0.226
CCN(CC)CC(=O)c1c[nH]c2ccccc12 | 0.247
COc1ccc(Oc2c(C=O)c3ccccc3n2C)cc1 | -1.1
COc1ccc(NS(=O)(=O)CC23CCC(CC2=O)C3(C)C)cc1 (centres undefined) | 0.124
CCc1ccc2nc(-c3cccc(C)c3)nc(SCC(=O)NCC3CCCO3)c2c1 (centres undefined) | -0.227

SMILES | z-score
CC12CCC(C(=O)N3CCCCC3)(CC1=O)C2(C)C (centres undefined) | -0.115
CC(=O)Nc1nc2nc(-c3ccccc3)cc(-c3ccccc3)n2n1 | 0.0168
COc1ccccc1N1CSC2=C(C#N)C(c3ccc(SC)cc3)CC(=O)N2C1 (centres undefined) | 0.814
CCCCn1c(=S)[nH]c2cc(S(=O)(=O)N3CCCCC3)ccc21 | 0.106
COc1ccccc1N(C)S(=O)(=O)c1ccc(C(=O)N(CC(N)=O)C(C)C)cc1 | active: -3.55
Cn1nnnc1SCc1nnc(-c2ccccc2Br)o1 | 0.436
C/C(O)=C(\C#N)c1nnc2n1CCCCC2 | -0.373
Cc1c(F)cccc1NC(=O)CSCC(=O)Nc1ccccc1 | 0.0382
CCOC(=O)c1[nH]c(C)c(C(=O)NC(C)(C)C)c1C | -0.132
Cc1csc(NC(=O)CSc2nnc(C)n2Cc2ccco2)n1 | -0.295
CC1(C)Cc2c(c(N3CCOCC3)nc3sc(C#N)c(N)c23)CS1 | -0.0306
O=C(CCc1ccccc1)Nc1ccc(F)cc1F | 0.0883
Cc1ccc(-c2nnn(CC(=O)N(Cc3cccs3)C(C(=O)NC(C)(C)C)c3ccc(C)o3)n2)o1 (centres undefined) | 0.441
COc1ccc(NC(=O)c2ccco2)cc1NC(=O)c1cccnc1 | 0.148
CC1=C(C(=O)OC2CCCCCCC2)C(c2ccc(O)cc2)NC(=O)N1 (centres undefined) | 0.145
CCCCNC(=O)c1ccc2c(c1)ncn2C1CCCCC1 | 0.585
COc1ccc(C2SCCN2S(=O)(=O)c2ccc(NC(C)=O)cc2)cc1 (centres undefined) | 0.468
Cc1ccc(S(=O)(=O)NNC(=O)C(O)(c2ccccc2)c2ccccc2)cc1 | -0.213
CCOc1cc(S(=O)(=O)n2cc(-c3ccc(F)cc3)c(N)n2)cc(OCC)c1OCC | -0.847
COc1ccc(-n2c(SCC(=O)NCC3CCCO3)nc3ccccc32)cc1 (centres undefined) | 0.294
Cc1cc(NC(=O)c2cnn3cccnc23)no1 | 0.00114
